Test results reported in paper PMC4336329 (PLoS ONE, 2015).
Out of some 310,000 compounds screened, about 2,200 (0.71%) showed an effect of 50% or more. Effects have a minus sign here. The list shows a part of the results.

Molecular target: human ether-à-go-go-related gene (hERG) potassium channel (human, UniProt Q12809)
Assay: primary screen, population patch clamp on CHO cells stably expressing hERG

Sequence of human ether-à-go-go-related gene (hERG) potassium channel (Q12809 whole entry, looked up): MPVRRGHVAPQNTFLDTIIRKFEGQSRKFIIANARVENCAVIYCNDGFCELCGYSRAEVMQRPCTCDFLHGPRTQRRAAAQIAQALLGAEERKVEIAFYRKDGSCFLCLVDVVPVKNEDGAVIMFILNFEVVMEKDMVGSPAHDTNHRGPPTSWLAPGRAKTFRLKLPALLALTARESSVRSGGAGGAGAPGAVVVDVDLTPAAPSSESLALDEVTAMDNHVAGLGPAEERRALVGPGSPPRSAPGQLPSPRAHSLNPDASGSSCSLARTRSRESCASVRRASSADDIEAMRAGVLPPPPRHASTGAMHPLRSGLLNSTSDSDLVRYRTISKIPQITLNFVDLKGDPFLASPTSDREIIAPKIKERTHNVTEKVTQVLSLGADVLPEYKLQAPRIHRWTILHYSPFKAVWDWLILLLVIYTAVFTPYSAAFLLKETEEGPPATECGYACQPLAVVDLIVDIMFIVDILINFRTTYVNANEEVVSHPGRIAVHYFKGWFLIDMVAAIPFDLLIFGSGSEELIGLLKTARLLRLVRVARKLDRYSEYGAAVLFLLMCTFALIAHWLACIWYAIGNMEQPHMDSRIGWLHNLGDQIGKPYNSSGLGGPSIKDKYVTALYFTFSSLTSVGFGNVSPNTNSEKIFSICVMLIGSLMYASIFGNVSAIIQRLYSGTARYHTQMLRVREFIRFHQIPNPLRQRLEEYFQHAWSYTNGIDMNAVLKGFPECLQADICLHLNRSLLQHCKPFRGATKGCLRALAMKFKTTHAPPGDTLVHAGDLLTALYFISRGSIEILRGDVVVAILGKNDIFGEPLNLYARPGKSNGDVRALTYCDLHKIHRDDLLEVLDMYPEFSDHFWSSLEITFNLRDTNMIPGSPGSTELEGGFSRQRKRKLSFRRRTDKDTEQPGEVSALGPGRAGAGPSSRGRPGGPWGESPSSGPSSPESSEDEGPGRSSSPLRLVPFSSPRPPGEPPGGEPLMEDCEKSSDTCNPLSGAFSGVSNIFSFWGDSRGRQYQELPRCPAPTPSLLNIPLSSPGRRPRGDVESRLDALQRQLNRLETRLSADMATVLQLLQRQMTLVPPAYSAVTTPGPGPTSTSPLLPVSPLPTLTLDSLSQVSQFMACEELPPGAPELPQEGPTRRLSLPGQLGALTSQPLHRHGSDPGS

Compound | hERG current change (%, negative = inhibition) at 1uM [%]
O=c1[nH]c(-c2ccccc2)ncc1Oc1ccccc1 | 12.4
CCc1cc(C(=O)N(CCCOC)c2c(N)n(Cc3ccccc3)c(=O)[nH]c2=O)sc1C | -9.05
O=C(O)c1cc(-c2ccc(/C=C3\NC(=O)N(c4ccccc4)C3=O)o2)ccc1Cl | 2.1
CCOC(=O)Nc1c(Cl)n(C)c(=O)n(C)c1=O | 14.1
O=C(NCC1OCCCN1S(=O)(=O)c1cc(F)ccc1F)C(=O)NC1CCCC1 (stereo not shown) | 4.53
Cc1nnsc1C(=O)N1CCCC(Nc2ccc(C(C)C)cc2)C1 (stereo not shown) | -16.3
Cc1c(C=C2C(=O)NC(=O)NC2=O)c(=O)n(-c2ccccc2)n1C | 12.5
COc1ccc(C(=O)NC2CCCCCC2)cc1S(=O)(=O)N1CCCC1 | 15.1
Cc1ccc(CNC(=O)CCNS(=O)(=O)c2cccc3nsnc23)cc1 | 11.4
O=C(CCn1cnc2ccccc2c1=O)Nc1nc2c(s1)CCCC2 | 7.08
CCNC(=S)N(CCN(C)C)Cc1cc2cc(OCC)ccc2[nH]c1=O | 2.14
Cn1c(SCc2ccccc2)nc(C(F)(F)F)cc1=O | 0.229
CN(Cc1ccon1)C(=O)CC1C(=O)NCCN1CC1CCCCC1 (stereo not shown) | 9.09
Cc1cccc(C)c1NC(=O)COC(=O)CCc1c[nH]c2ccccc12 | 10.5
COC(=O)C1=C(C)NC(=S)NC1c1sccc1C (stereo not shown) | 6.84
Cc1ccc(CS(=O)(=O)CCC(=O)NCCc2ccccc2)cc1 | 9.48
CC1CCCC(C)N1C(=O)COc1ccc(C(=O)Nc2ccccc2N2CCOCC2)cc1 (stereo not shown) | 7.19
Cc1nc2ccc(F)cc2cc1C(=O)Nc1ccc(Cl)c(Cl)c1 | 11.6
COCCNC(=O)c1ccc2c(=O)n(Cc3ccco3)c(SCC(=O)NC3CCCC3)nc2c1 | -2.89
Cc1[nH]c(=O)nc(SCc2ccc(Cl)c(Cl)c2)c1C#N | 13.2
Cn1c(=O)[nH]c(=O)c2c1nc(NCCCO)n2CCCc1ccccc1 | 3.04
CC1(c2ccccc2)NC(=O)N(CC(=O)NCc2cccc(Cl)c2)C1=O (stereo not shown) | 9.52

Compound | hERG current change (%, negative = inhibition) at 1uM [%]
COc1ccccc1NS(=O)(=O)c1cccc(C(=O)NNC(=O)c2ccc(NC(C)=O)cc2)c1 | 13.9
COc1ccc(CCC(C)NC2CCCCCCC2)cc1 (stereo not shown) | -5.51
O=C(COc1ccc(Cl)cc1)Nc1cccc(-c2ccc(N3CCOCC3)nn2)c1 | 11.1
Cc1ccc(NC(=O)c2cc3cccc([N+](=O)[O-])c3[nH]2)cc1 | 15.1
COc1ccccc1N1CCN(Cc2cnc(-c3ccccc3)[nH]2)CC1 | 2.21
O=C(O)C(=O)O.c1ccc(-c2ccccc2OCCOCCN2CCOCC2)cc1 | 11.3
Cc1[nH]nc2c1/C(=N\O)CCC2 | 1.4
Oc1ccc(F)cc1-c1cc(-c2ccc3c(c2)OCCO3)n[nH]1 | 13.3
Cn1nnc2cc(C(=O)Nc3cccnc3)ccc21 | 7.75
CCOc1ccc(CN(C)C(=O)[C@H](Cc2ccccc2)NC(=O)OCc2ccccc2)cc1OC | 4.17
CCCCN1C(=O)CCC(C(=O)O)C1c1ccc([N+](=O)[O-])cc1 (stereo not shown) | 13.8
O=C1[C@H]2[C@H](ON3CCCC[C@H]23)C(=O)N1c1ccc(Cl)cc1 | 14.2
CC(Oc1ccc(Cl)cc1)c1ccnn1S(=O)(=O)c1ccccc1 (stereo not shown) | 9.56
COc1cc(C(=O)N2CCC(c3nc(-c4cccnc4)no3)CC2)cc(OC)c1OC | 8.83
O=c1ccc(NS(=O)(=O)c2ccc(Cl)cc2)cn1Cc1ccc(Cl)c(Cl)c1 | 10.9
Nc1c(O)cccc1C(=O)O | 16.2
CCCN1C(=O)c2ccccc2NC1c1ccc(OC)c(CSc2ccccn2)c1 (stereo not shown) | 4.32
CCOCc1nnc(NC(=O)CSc2ccc(C)cc2)s1 | 13.1
CCCNC(=O)c1ccccc1N1CCN(CCCCN2C(=O)C3CCCCN3C2=O)CC1.Cl.O (stereo not shown) | 2.33
O=C(/C=C/c1ccccc1)c1ccoc1 | 4.55
COC(=O)c1ccccc1NC(=O)c1cn(-c2ccc(C)c(C)c2)c(=O)c2ccccc12 | 18.4
CC(=O)Nc1cc(C(=O)CSc2nnc(C3CC3)n2C2CC2)ccc1O | 8.98

Compound | hERG current change (%, negative = inhibition) at 1uM [%]
Cc1cccc(/C=C/C(=O)c2ccc(NC3=NCCCS3)cc2)c1 | 20
CC(C)c1ccc(CCNC(=O)c2cccc(S(=O)(=O)N3CCN(C)CC3)c2)cc1 | 4.31
O=[N+]([O-])c1ccc2c(c1)C=C1CCCCC1(N1CCCC1)O2 (stereo not shown) | 1.26
CC1=NOC(=O)/C1=C\c1ccc(-c2cccc(Cl)c2)o1 | 12
COc1cc2c(cc1OC)CN(C(=O)CSc1nnc(C)s1)CC2 | 15.1
CC(OC(=O)C1CC1)C(=O)Nc1ccc([N+](=O)[O-])cc1Cl (stereo not shown) | 13.7
CC12CCC(C(=O)Nc3cc(Cl)ccc3Cl)(C/C1=N\O)C2(C)C (stereo not shown) | -1.4
CCOC(=O)c1sc(NC(=O)COc2ccc3c(c2)OCO3)nc1C | 6.71
O=C(CCS(=O)(=O)Cc1cccc(Cl)c1)NCCc1ccccc1 | 9.93
CCOc1cc(/C=N/NC(=O)COc2ccc(C)cc2)ccc1OC(=O)c1cccs1 | 8.29
CCc1ccccc1NC(=O)CN(C)C(=O)CSc1nnc(Nc2cccc(C)c2C)s1 | 8.86
NNC(=O)COc1ccccc1F | 8.73
COc1ccc(COC(=O)N/N=C(\C)CC(=O)Nc2ccc(Cl)cn2)cc1 | 0.667
Cc1ccccc1NS(=O)(=O)c1ccc(NS(=O)(=O)c2cccs2)cc1 | 11.5
CCCCCCCN(C(=O)CCl)c1ccccc1C | 2.76
Cc1ccc2c(C)nc(Nc3nc(CSc4nc5ccccc5[nH]4)cc(=O)[nH]3)nc2c1 | -2.23
O=C(CSc1ccccn1)N/N=C/c1c[nH]c2ccccc12 | 14.6
CCOC(=O)c1nn(-c2ccc(F)cc2)c2nc(Nc3ccccc3)cc(=O)n12 | 14.8
COc1ccc(-c2csc(NC(=O)c3ccccc3Br)c2C(=O)O)cc1 | 14.8
COc1ccccc1CN(CC(=O)NCC1CCCO1)C(=O)CNS(=O)(=O)c1ccc(C)cc1 (stereo not shown) | -0.52
CCOC(=O)N1CCC(N2C(=O)c3ccccc3C2Nc2ccc(S(=O)(=O)N3CCOCC3)cc2)CC1 (stereo not shown) | 10.1
CCOC(=O)c1sc(N)c(C#N)c1CSc1nnc(C2CCCCC2)n1N | 6.28

Compound | hERG current change (%, negative = inhibition) at 1uM [%]
COc1ccc(-c2nc(SC(C)C(=O)NCC3CCCO3)n[nH]2)cc1 (stereo not shown) | 0.826
N#Cc1ccsc1NC(=O)CN(Cc1ccccc1)Cc1ccccc1 | 18.2
COCCN(C(=O)CSc1nc2ccc(Cl)cc2[nH]1)c1c(N)n(Cc2ccccc2)c(=O)[nH]c1=O | 0.101
O=C(CC(C(=O)O)P(=O)(c1ccccc1)c1ccccc1)c1ccccc1 (stereo not shown) | 15
COc1ccc(OC)c(NC(=O)CC2Oc3ccccc3NC2=O)c1 (stereo not shown) | 14.1
CC(=O)c1ccc(Cc2ccccc2)cc1 | 5.62
CC1(C)CC(NC(=O)COc2ccccc2Cl)CC(C)(C)N1 | 0.0789
CCCCN1C(=O)c2ccc(C(=O)OCC(=O)N3CCN(c4ccccc4)CC3)cc2C1=O | 3.72
CC(=O)Oc1ccc2oc(=O)c3c(c2c1)CCCN3C(=O)CN1CCN(c2ncccn2)CC1 | 8.16
Cc1nnsc1C(=O)NNC(=O)c1ccc(C(F)(F)F)cc1 | 15.2
COC(=O)c1c(C)[nH]c(C(=O)C(C)OC(=O)c2ccco2)c1C (stereo not shown) | 10.3
O=C1c2ccccc2NC(c2c(Cl)cccc2Cl)N1Cc1ccccc1 (stereo not shown) | 5.41
Cc1cccc(-c2nc(C)cc(=O)[nH]2)c1 | 15.7
CC(C)n1cnc2c(N(C)c3ccccc3)nc(N(CCN(C)C)Cc3ccccc3)nc21 | -58.5
COC(=O)c1nnn(-c2nonc2N)c1CSc1ccccn1 | 4.62
Cn1c(=O)c(C(=O)COC(=O)c2cc(C(F)(F)F)nc3c(C(F)(F)F)cccc23)c(N)n(CC2CC2)c1=O | -1.07
CCOC(=O)c1nnn(-c2nc(OC)nc(N3CCCC3)n2)c1-c1ccccc1 | 16.7
COc1cc(OC)c(/C=C2\SC(=O)N(CC(=O)Nc3ccccc3F)C2=O)c(OC)c1 | 13.7
CN(C)/C=C/C(=O)c1ccc(S(=O)c2ccccc2)cc1 (stereo not shown) | 22
COc1cccc(CNC(=O)CCC2CCCN(C(=O)c3csc(C(C)C)n3)C2)c1 (stereo not shown) | 8.69
CC1Cc2ccccc2N1C(=O)COc1cccc(-n2cnnn2)c1 (stereo not shown) | 9.52
CC(=O)c1cccc(S(=O)(=O)Nc2cccc(S(=O)(=O)NC3=NCCC3)c2)c1 | 15.3
